# Test results published in PubChem BioAssay AID463173 (ICCB-Longwood Screening Facility, Harvard Medical School, 2010).
# About 4,300 (8.3%) of roughly 52,000 compounds were called active. Cut-off read from the data, not from the text of the source: active = survival mostly below about 52% (no sharp cut-off); inactive = mostly above about 56%. This is one part of the list.
# Test system: DeltatarO mutant
# Test: S. aureus survival, RN4220 and DeltatarO strains – OD600, teichoic acid synthesis inhibitors, primary screen (AID 463173)
# Details: S. aureus RN4220 wild type/DeltatarO growth, OD600, 18 h, stronger effect = lower value, screened at 18.75 µg/mL (by protocol)
row,Structure (SMILES),survival
1,Cc1coc2c(C)c3oc(=O)c(CC(=O)NCCc4ccc(Cl)cc4)c(C)c3cc12,inactive: 82%
2,C=CCc1c(C)nc2nc(SCC(=O)Nc3ccc(C)c(C)c3)nn2c1C,inactive: 75%
3,COc1ccc(NC(=O)C2CCCN(S(=O)(=O)c3ccc4c(c3)oc(=O)n4C)C2)c(OC)c1 (centres undefined),inactive: 116%
4,O=C(COc1ccccc1F)Nc1nnc(SCc2cc(=O)c3ccccc3[nH]2)s1,inactive: 80%
5,Cc1cccc(CSc2nc(-c3cccs3)ccc2C#N)c1,active: 18%
6,CCCn1c(=O)c2sccc2n2c(CCCC(=O)Nc3ccc(Oc4ccc(Cl)cc4)cc3)nnc12,inactive: 98%
7,Cc1ccc(NC(=O)c2ccc(CN3C(=O)CCn4nc(C)cc43)cc2)c(Cl)c1,inactive: 82%
8,CC(=O)c1ccc(NS(=O)(=O)c2ccc(-c3cc(C)no3)s2)cc1,inactive: 122%
9,CCOc1ccc(CCNC(=O)C2CCN(C(=O)c3cc4sccc4n3CC)CC2)cc1OCC,inactive: 86%
10,CCCCOc1ccc(S(=O)(=O)Nc2ccc(-c3ccc(N4CCC(C)CC4)nn3)cc2)cc1,inactive: 60%
11,Cc1cccc(NC2CC(=O)N(c3cccc(Cl)c3)C2=O)c1 (centres undefined),inactive: 79%
12,COc1ccc(CCN2C(=O)c3oc4cc(C)cc(C)c4c(=O)c3C2c2ccccc2F)cc1OC (centres undefined),inactive: 70%
13,COc1cccc(-c2nnc(SCC(=O)NC3CCCCC3)o2)c1,inactive: 73%
14,O=C(CSc1nnc2c3c4c(sc3ncn12)CCCC4)Nc1nccs1,inactive: 86%
15,O=C(Cn1nnc2c(cnn2-c2ccccc2)c1=O)N(c1ccccc1)c1ccccc1,inactive: 101%
16,CCC1CN(S(=O)(=O)c2cc(-c3onc(C)c3C)ccc2C)c2cc(Cl)ccc2O1 (centres undefined),inactive: 72%
17,NC(=O)C1(N2CCCCC2)CCN(C(=O)Nc2ccc(F)cc2F)CC1,inactive: 112%
18,Cc1cc(C)c2c(NCc3ccc(N4CCCCC4)cc3)n[nH]c2n1,inactive: 93%
19,CCOC(=O)N1CCC2(CC1)OC(=O)C(C)=C2C(=O)NCc1cccc(F)c1,inactive: 73%
20,CCCc1nc2sc3c(c2c(=O)n1N)CCCC3,inactive: 97%
21,Cc1cccc(NC(=O)CN2C(=O)c3cccc4cccc2c34)c1C,inactive: 54%
22,CCCN1CCN(c2ncnc3sc(C(=O)Nc4c(C)cc(C)cc4C)c(C)c23)CC1,inactive: 72%
23,O=c1ccc(-c2ccccc2)nn1Cc1ccc(F)cc1Cl,inactive: 49%

row,Structure (SMILES),survival
1,Cc1ccc(Cn2ccnc2SCC(=O)Nc2nc3ccccc3s2)cc1,inactive: 99%
2,Cc1cc(NC(=O)C2CCN(S(=O)(=O)c3cccc4nsnc34)CC2)ccc1Br,inactive: 80%
3,NS(=O)(=O)c1ccc(NC(=O)C(=O)Nc2ccc3nc4n(c(=O)c3c2)CCCCC4)cc1,inactive: 89%
4,Cc1cccc(C(=O)N2c3nc(-c4ccco4)nn3C3(CCCCC3)[C@@H]3CCCC[C@@H]32)c1,inactive: 55%
5,CCN=c1sc(C(=O)NCCc2ccccc2)cc(=O)n1CC,inactive: 71%
6,C#CCOc1ccc(C2CC(=O)Nc3c2c(C)nn3-c2nc(C)cc(C)n2)cc1 (centres undefined),inactive: 83%
7,Cc1cccc(-n2ncc3c(N4CCCC(C)C4)ncnc32)c1 (centres undefined),inactive: 84%
8,CSc1nn(Cc2cccc(C)c2)c(N)c1S(=O)(=O)c1ccccc1,inactive: 124%
9,COc1ccc(CNC(=O)c2ccc(NC(=O)N3CCSc4ccccc43)cc2)cc1,inactive: 56%
10,CC(C)CNC(=O)c1ccc(CN2CCOCC2)cc1,inactive: 74%
11,CCOc1ccc2nc(N3CCCC(C(=O)Nc4cc(Cl)c(OC)cc4OC)C3)sc2c1 (centres undefined),inactive: 90%
12,Cc1c(C(=O)Nc2cccc(-c3nc4ccccc4s3)c2)oc2ccccc12,inactive: 80%
13,COc1ccccc1NC(=O)N1CCN2C(=O)c3ccccc3C12c1ccccc1 (centres undefined),inactive: 84%
14,COc1cc2c(=O)n(CCC(=O)NCC3CCCO3)c(=O)n(CC(=O)Nc3ccc(C)cc3C)c2cc1OC (centres undefined),inactive: 65%
15,Cc1ccccc1Cn1c2ccccc2c2cnn(CC(=O)NC3CCC(C)CC3)c(=O)c21 (centres undefined),inactive: 64%
16,CCc1ccc(CNCc2c(C(=O)O)n(Cc3ccc(C)cc3)c3cc(C)ccc23)cc1,active: 14%
17,COc1cc(NC(=O)C(CC(C)C)NS(=O)(=O)c2ccc3c(c2)CCN3C(C)=O)cc(OC)c1 (centres undefined),inactive: 89%
18,CC(C)c1ccc2oc(-c3ccc(NC(=O)c4cccc(Br)c4)cc3)nc2c1,active: 44%
19,Cc1ccc(NC(=O)CC(C)S(=O)(=O)c2ccc3c(c2)NC(=O)CO3)c(Cl)c1 (centres undefined),inactive: 85%
20,Cc1ccc2nc(-c3ccc(NC(=O)c4ccc(S(C)(=O)=O)cc4)cc3)sc2c1,inactive: 88%
21,COCCn1cc(C(=O)NCCCOC(C)C)c2c3ccccc3n(C)c2c1=O,inactive: 131%
22,Cc1ccc(Cc2nc3ccccc3nc2SCC(=O)N2CCN(c3ccc(F)cc3)CC2)cc1,inactive: 112%
23,CCOC(=O)c1noc2nc(C)n(Cc3cccc([N+](=O)[O-])c3)c(=O)c12,inactive: 134%

row,Structure (SMILES),survival
1,CCc1nn(CC(=O)NC(C)CCc2ccccc2)c(=O)c2cc3c(OC)cccc3n12 (centres undefined),inactive: 75%
2,Cc1nnc(SCC(=O)NCc2ccccc2Cl)c2nn(-c3ccccc3)c(C)c12,inactive: 122%
3,CCc1ccc(-n2nc(C)c3c(C)cc(=O)n(CC(=O)Nc4ccc(F)cc4C)c32)cc1,inactive: 77%
4,Cc1ccc(CNC(=O)CCNS(=O)(=O)c2cccc3nsnc23)cc1,inactive: 49%
5,CCCN(CCC)CC(O)Cn1cc(/C=C/C(=O)c2ccc(Br)cc2)c2ccccc21 (centres undefined),inactive: 66%
6,CCn1cc(C(=O)N(C)c2ccc(C(C)C)cc2)c2cc(OC)c(OC)cc2c1=O,inactive: 117%
7,Cc1ccc2nc(NC(=O)CSc3ncc(C(=O)Nc4ccc(F)cc4)c(=O)n3C)sc2c1,inactive: 112%
8,Cc1c(CCC(=O)N2CCCCC2)c(=O)oc2cc3occ(C(C)(C)C)c3cc12,inactive: 59%
9,CCc1ccc(NC(=O)Cn2c(=O)n(-c3ccc(OC)cc3)c(=O)c3ccc(C(=O)NCc4ccc(C)cc4)cc32)cc1,inactive: 103%
10,CC(=N/O)/C(=N\O)c1ccc(C)o1,inactive: 93%
11,Cc1ccc(CN2CCN(C3CCNCC3)C(=O)C2=O)cc1,inactive: 82%
12,COc1ccc(NC(=O)C2CCN(c3ccc(Sc4ccc(C)cc4)nn3)CC2)c(OC)c1,inactive: 87%
13,CCC(C(=O)N1CCN(c2cc(C)ccc2C)CC1)n1nc(C)n2c(cc3occc32)c1=O (centres undefined),active: 43%
14,Cc1ccc(S(=O)(=O)N2CCc3cc(C(=O)Nc4c(F)cccc4F)ccc32)cc1,inactive: 64%
15,Cc1ccc2c(CN3CCN(C(=O)c4ccc(Br)cc4)CC3)cc(=O)oc2c1,inactive: 51%
16,CCOc1ccc(NC(=O)C2CCCN(c3nnc(C)c4c(C)n(-c5ccccc5)nc34)C2)cc1 (centres undefined),inactive: 115%
17,Cn1c(=O)c2c(nc(N3CCOCC3)n2Cc2ccc(Br)cc2)n(C)c1=O,active: 43%
18,Cc1nc(NCC2CCCO2)c2c3c(sc2n1)CCC3 (centres undefined),inactive: 93%
19,COc1ccccc1NC(=O)CSC1=Nc2ccccc2C2=NC(CC(=O)NCc3ccccc3)C(=O)N12 (centres undefined),inactive: 71%
20,COc1ccc(CCNC(=O)C2CCN(S(=O)(=O)c3c(C)noc3/C=C/c3ccc(C)cc3)CC2)cc1OC,inactive: 95%
21,CCC(=O)N1CCN(c2ccc(N)cc2)CC1,inactive: 93%
22,Cc1ccc(S(=O)(=O)C(CNC(=O)C(=O)NCc2ccccc2C)c2cccs2)cc1 (centres undefined),inactive: 85%
23,CNS(=O)(=O)c1cn(CC(=O)Nc2ccc(C(C)=O)cc2)cc1S(=O)(=O)NC,inactive: 69%

row,Structure (SMILES),survival
1,CCCCNS(=O)(=O)c1ccc(C)c(-c2nnc3c4ccccc4c(C)nn23)c1,inactive: 94%
2,Cc1ccc(CN2CCN(C3CCN(C(=O)Nc4ccc(C)cc4Cl)CC3)C(=O)C2=O)cc1,inactive: 99%
3,CC(=O)N1CCc2cc(CNC(=O)c3ccccc3Br)ccc21,inactive: 79%
4,O=C(NCc1cccs1)C1CCN(C(=O)N2CCOc3ccc(Cl)cc32)CC1,inactive: 51%
5,O=C(Nc1ccc(Br)cc1)c1ccc(F)c(S(=O)(=O)N2CCc3ccccc32)c1,inactive: 70%
6,CC(=O)N1CCc2cc(S(=O)(=O)NC(Cc3ccccc3)C(=O)NCc3ccc(C)cc3)ccc21 (centres undefined),inactive: 65%
7,C=CC#CC(C)(C)c1ccc(O)c(C)c1,inactive: 97%
8,COc1cccc(NC(=O)CSc2nc(=O)n(Cc3ccncc3)c3c2CCC3)c1,inactive: 98%
9,CCNc1nc2c(c(=O)n(Cc3ccccc3)c(=O)n2C)n1Cc1ccccc1,inactive: 103%
10,CC1=C(C(=O)OC2C3CC4CC(C3)CC2C4)C(CC(=O)O)C(=O)N1 (centres undefined),inactive: 64%
11,O=C(OC(C(=O)NCc1ccc2c(c1)OCO2)c1ccncc1)c1ccc(Cl)nc1 (centres undefined),inactive: 84%
12,CN1CCN(CC(=O)Nc2ccc(C(=O)NCC3CCCO3)cc2)CC1 (centres undefined),inactive: 100%
13,CC(C)C(=O)NS(=O)(=O)c1ccc(NC(=O)c2ccco2)cc1,inactive: 90%
14,CC(C)OC(=O)c1c(-c2ccccc2)c(-c2ccccc2)nn(C)c1=O,inactive: 110%
15,CCOC(=O)c1ccc(NC(=O)CCn2ccc(C)n2)cc1,inactive: 94%
16,CCOC(=O)c1c(C)[nH]c(CCC(=O)NCc2ccccc2Cl)c1C,inactive: 98%
17,CCOC(=O)c1cccc(Nc2cc(-c3ccccc3)ncn2)c1,active: 15%
18,CCOc1ccc(OCC)c(NC(=O)C2CCN(c3nnc(-n4cccc4)s3)CC2)c1,inactive: 75%
19,COc1ccccc1NC(=O)CCN1CCCCC1,inactive: 55%
20,Cc1nc(-c2ccccc2)sc1CCNC(=O)C(=O)Nc1ccc2c(c1)OCO2,inactive: 76%
